Experimental data as given in the supplement of paper PMC10369915.
Some of the results follow. No stated cut-off is given here; in the data, active = 3.2 or more and inactive = the rest. The signal is at background level for most entries.

B1: FER_Y402 (peptide)
chain: PPVVNYEEDAR
B2: FGFR1_Y766_D768Y_YF (peptide)
chain: TSNQEYLFLSM
B3: FGFR2_Y608 (peptide)
chain: LVSCTYQLARG
B4: FDPS_Y388_YF (peptide)
chain: FEEDSYSHIMA
B5: FGFR1_Y654_YF (peptide)
chain: HHIDFYKKTTN
B6: FGB_Y266_P265L_YF (peptide)
chain: SSVKLYRVFCD
B7: FGF10_Y161_YF (peptide)
chain: IEENGYNTFAS
B8: FGF6_Y186_R191W (peptide)
chain: IALSKYGRVKW
B9: FGB_Y269_YF (peptide)
chain: KPFRVYCDMNT
B10: FGFR2_Y608_R612T (peptide)
chain: LVSCTYQLATG
B11: FGF7_Y58 (peptide)
chain: TRSYDYMEGGD
B12: FGFR1_Y613_K618N (peptide)
chain: ARGMEYLASKN
B13: FGFR1_Y701_G703S (peptide)
chain: LGGSPYPSVPV
B14: FGFR1_Y766 (peptide)
chain: TSNQEYLDLSM
B15: FGFR1_Y730_C725Y (peptide)
chain: YTNELYMMMRD
B16: FGB_Y266_P265L (peptide)
chain: SSVKLYRVYCD
B17: FGB_Y475_R478K (peptide)
chain: WKGSWYSMKKM
B18: FGF23_Y70 (peptide)
chain: PHQTIYSALMI
B19: FGFR1_Y210_W213G_YF (peptide)
chain: GFKVRYATGSI

These binders were tested against SHP2 C-SH2 domain E139D (assay: enrichment score (SH2-bound / input frequency) (ratio); bacterial display of known human phosphotyrosine sites (pTyr-Var adds point mutants) read by sequencing; higher = stronger binding; tyrosines were phosphorylated by kinases first). Details: peptide library: pTyr-Var.
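Further: displayed peptides selected on beads carrying the immobilized SH2 domain, with library peptides lacking any tyrosine serving as negative controls.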

Enrichment score, inactive:
B1 0.551
B2 0.74
B3 0.873
B4 0.628
B5 0.94
B6 0.749
B7 0.64
B8 2.28
B9 0.669
B10 0.993
B11 0.637
B12 0.529
B13 1.47
B14 0.821
B15 1.03
B16 0.919
B17 1.73
B18 0.571
B19 1.29

These binders were tested against SHP2 C-SH2 domain wild-type in the same assay as above. Details: peptide library: pTyr-Var.

Enrichment score, inactive:
B1 0.585
B2 0.827
B3 0.91
B4 0.571
B5 0.555
B6 0.83
B7 0.725
B8 2.12
B9 0.921
B10 1.37
B11 0.566
B12 0.57
B13 0.707
B14 0.831
B15 0.867
B16 0.781
B17 1.64
B18 0.688
B19 1.07

Each binder was assayed against SHP2 N-SH2 domain L43F in the same assay as above. Details: peptide library: pTyr-Var.

Enrichment score, inactive:
B1 0.691
B2 0.765
B3 0.676
B4 0.617
B5 0.523
B6 0.714
B7 0.606
B8 2.15
B9 0.962
B10 1.08
B11 0.553
B12 0.561
B13 0.831
B14 0.863
B15 1.14
B16 0.779
B17 1.81
B18 0.451
B19 1.27

Each binder was assayed against SHP2 N-SH2 domain T42A in the same assay as above. Details: peptide library: pTyr-Var.

Enrichment score, inactive:
B1 0.53
B2 0.618
B3 0.756
B4 0.575
B5 0.535
B6 0.835
B7 0.607
B8 2.07
B9 0.78
B10 0.639
B11 0.444
B12 0.49
B13 0.649
B14 0.796
B15 1.16
B16 0.575
B17 1.81
B18 0.678
B19 1.05

What follows are binders tested against SHP2 N-SH2 domain T52S in the same assay as above. Details: peptide library: pTyr-Var.

Enrichment score, inactive:
B1 0.489
B2 0.847
B3 0.677
B4 0.591
B5 0.408
B6 0.673
B7 0.556
B8 2.2
B9 0.803
B10 0.897
B11 0.499
B12 0.502
B13 0.8
B14 0.796
B15 0.929
B16 0.82
B17 1.86
B18 0.395
B19 1.27

What follows are binders tested against SHP2 N-SH2 domain wild-type in the same assay as above. Details: peptide library: pTyr-Var.

Enrichment score, inactive:
B1 0.685
B2 0.709
B3 1.11
B4 0.671
B5 0.886
B6 1.04
B7 0.561
B8 2.07
B9 1.1
B10 1.34
B11 0.577
B12 0.569
B13 0.772
B14 0.994
B15 0.985
B16 0.787
B17 1.53
B18 0.568
B19 1.03
